# PubChem BioAssay AID662 (National Center for Advancing Translational Sciences (NCATS), 2007)
# In all, about 71,000 compounds went through this assay and about 1,800 (2.5%) were called active. This list was built around the results that the source calls inconclusive (neither active nor inactive); the mix of calls is not that of the screen. Calls follow the shape of the dose curve; as a rule, active = well fitted activation curve with a large enough effect in the signal ratio, with a control signal flat (not every such curve was filed as active); inconclusive = small, poorly fitted or top-dose-only effect, or effect the other way, or a change in a side signal; inactive = flat fitted curve, though single readings scatter; the % refers to the signal ratio. A potency beside an inconclusive call is a rough fit, not a confirmed value.
# Assay: Cell signaling CRE-BLA (Fsk stim); as to activity change, negative = inhibition: % of control where 0% means no effect
# Settings: CHO CRE-bla reporter (cAMP response element driving beta-lactamase), forskolin EC10, beta-lactamase ratio; activity change, negative = inhibition: at 38.2 µM (top of the series) unless noted
# Method in brief: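 AC50 values, positive or negative, reflect shifts in EC10 NKH 477-induced CRE-bla reporter activity in CHO cells. Incubation lasted 3 h at 37 °C before CCF4 substrate (2 h, room temperature) and ratiometric 460/530 nm reading.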
# Potency is read from the fitted curve at half-maximal effect; tags tell the direction and shape of the fitted curve.
SMILES,"activity change, negative = inhibition",Potency
CCCC(=O)Nc1nnc(Sc2ccc(N(C)C)cc2)s1,inconclusive: 9.25%,–
COc1ccccc1CN1CC[C@@]2(CCCN(C(=O)c3ccncc3)C2)C1,inactive: -1.76%,–
COc1ccc(NC(=O)COC(=O)c2ccc(Br)o2)cc1OC,inactive: -4.25%,–
CSc1ccccc1NC(=O)C1CC(c2ccccc2O)=NO1 (stereo unspecified),–,"inconclusive: 0.251 µM [rising, full curve, poor fit]"
COc1ccc(C2C(C(=O)O)CC(=O)N2c2ccc(OC)cc2)cc1 (stereo unspecified),inconclusive: -0.484%,–
Cn1c(=O)c2c(nc(SCCCC#N)n2Cc2ccccc2F)n(C)c1=O,–,"inconclusive: 10 µM [rising, single point]"
CC(C)[C@@H](CC(=O)N[C@@H]1CCNC[C@H]1C(=O)N[C@H](CC(=O)N[C@@H](CCC(=O)O)CC(=O)O)Cc1ccccc1)NC(=O)C[C@H](Cc1c[nH]c2ccccc12)NC(=O)[C@@H]1CCCC[C@H]1N,inconclusive: -3.24%,–
Cc1ccc(NC2c3ncccc3C(=O)N2C2CCCCC2)cc1 (stereo unspecified),inconclusive: -5.28%,–
COc1cccc(C2CC(c3cccc(C)c3)n3ncnc3N2)c1 (stereo unspecified),inactive: 11.7%,–
CCCOc1ccc2oc(=O)c3c(c2c1)CCCN3C(=O)CN1CCc2ccccc2C1,inconclusive: 1.9%,–
CCOc1ccc(OCC)c(NC(=O)Cn2cccc2)c1,–,"inconclusive: 6.31 µM [rising, full curve, poor fit]"
NC(=O)C(F)(F)C12OC3C4C5CC(C6C5C3C61)C42 (stereo unspecified),–,"inconclusive: 3.98 µM [falling, single point]"
Cc1cc(Nc2ccc(F)cc2F)n2nc(C)nc2n1,–,"inconclusive: 12.6 µM [rising, single point]"
Cc1cc(C)nc(SCC(=O)OCN2C(=O)c3ccccc3C2=O)n1,–,"inconclusive: 0.158 µM [rising, full curve]"
Cc1n[nH]c(C)c1-c1nc2ccccc2[nH]1,inactive: -11.4%,–
Cc1ccc2cc(CN(Cc3nnnn3Cc3ccco3)CC3CCCO3)c(=O)[nH]c2c1C (stereo unspecified),inactive: -12.1%,–
CC(C)[C@@H]1[C@H]2CC[C@H](C2)[C@H]1N,–,inactive
O=C(CN1C(=O)c2ccccc2C1=O)OCC(=O)N1CCc2ccccc2C1,–,"inconclusive: 2.51 µM [falling, full curve, poor fit]"
CCC(=O)N(CC)c1nc(-c2ccc(OC)cc2)cs1,–,"inconclusive: 3.16 µM [rising, single point]"
O=C(Nc1cccc(NC(=O)c2ccc(-c3cccc(Br)c3)o2)c1)c1ccco1,inactive: 6.88%,–
CN(C)c1ncc2nc(-c3ccc(Cl)cc3)c(=O)n(C3CC3)c2n1,–,"inconclusive: 1.58 µM [rising, full curve]"
